The values that follow come from the antibiotic and cytotoxicity screens of Wong et al. (2023).

The other results are listed elsewhere or left out.

One experiment relates to HSkMC. Put plainly: cytotoxicity call (relative viability < 0.9). Particulars: 10 µM.
The test system of another experiment is HepG2. The experiment is described as follows: cytotoxicity call (relative viability < 0.9). As to conditions: 10 µM.
The test system of another experiment is S. aureus RN4220. Put plainly: growth inhibition call (relative growth <= 0.2). As to conditions: 50 µM.

As for `C[C@@H]1CN([C@H](C)CO)C(=O)Cc2cc(NC(=O)Nc3ccc(C(F)(F)F)cc3)ccc2O[C@@H]1CN(C)Cc1ccccc1`, the cytotoxicity call in the experiment with HSkMC and with HepG2 was “active” each time. Further, the growth inhibition call in the experiment on S. aureus RN4220 is “inactive”.

In the case of `C[C@@H]1CN([C@H](C)CO)S(=O)(=O)c2ccc(C#CCN(C)C)cc2O[C@@H]1CN(C)Cc1ccc2c(c1)OCO2`, the cytotoxicity call in the experiment on HSkMC and with HepG2 was “inactive” throughout. In addition, the growth inhibition call in the experiment on S. aureus RN4220 was “inactive”.

As to `C[C@@H]1CN([C@H](C)CO)C(=O)c2cc(NS(C)(=O)=O)ccc2O[C@@H](C)CCCCO[C@H]1CN(C)S(=O)(=O)c1ccc(F)cc1`, the cytotoxicity call in the experiment with HSkMC and in the experiment with HepG2 was “inactive” in each case. In the experiment with S. aureus RN4220, the growth inhibition call is “inactive”.

With `C[C@@H]1CN([C@@H](C)CO)S(=O)(=O)c2ccc(C#Cc3cccnc3)cc2O[C@H]1CN(C)CC1CCCC1`, the cytotoxicity call in the experiment on HSkMC and in the experiment on HepG2 was “inactive” throughout. Further, the growth inhibition call in the experiment with S. aureus RN4220 is “inactive”.

Turning to `COc1ccc(NC(=O)Nc2ccc3c(c2)C(=O)N([C@@H](C)CO)C[C@@H](C)[C@H](CN(C)Cc2ccc(-c4ccccc4)cc2)O3)cc1`, in the experiment on HSkMC, the cytotoxicity call is “inactive”. In the experiment on HepG2, the cytotoxicity call is “active”. Further, in the experiment on S. aureus RN4220, the growth inhibition call was “inactive”.

With `COc1ccc(NC(=O)Nc2ccc3c(c2)CC(=O)N([C@H](C)CO)C[C@H](C)[C@@H](CN(C)S(=O)(=O)c2cn(C)cn2)O3)cc1`, the cytotoxicity call with HSkMC and with HepG2 was “inactive” each time. Further, in the experiment with S. aureus RN4220, the growth inhibition call is “inactive”.

`C[C@@H]1CN([C@H](C)CO)C(=O)c2cc(NC(=O)NC3CCCCC3)ccc2O[C@@H](C)CCCCO[C@H]1CN(C)C(=O)Nc1ccc2c(c1)OCO2`: the cytotoxicity call with HSkMC and in the experiment on HepG2 was “inactive” each time. Moreover, the growth inhibition call with S. aureus RN4220 is “inactive”.

For `C[C@H](CO)N1C[C@H](C)[C@H](CN(C)S(=O)(=O)c2ccc(C(F)(F)F)cc2)OCc2ccccc2-c2c(n(C)c3ccccc23)C1=O`, the cytotoxicity call in the experiment on HSkMC and in the experiment on HepG2 was “inactive” each time. Further, in the experiment with S. aureus RN4220, the growth inhibition call was “inactive”.

On to `C[C@H](CO)N1C[C@H](C)[C@H](CN(C)C(=O)Nc2ccc(F)cc2)OCCCC[C@H](C)Oc2ccc(NC(=O)Nc3ccccc3)cc2C1=O`, for which the cytotoxicity call with HSkMC and in the experiment with HepG2 was “inactive” each time. The growth inhibition call in the experiment with S. aureus RN4220 was “inactive”.

Turning to `C[C@@H]1CN([C@H](C)CO)C(=O)Cc2cc(NS(=O)(=O)c3ccc(F)cc3)ccc2O[C@H]1CN(C)Cc1ccc(Oc2ccccc2)cc1`, the cytotoxicity call with HSkMC and in the experiment on HepG2 was “active” each time. Besides, in the experiment with S. aureus RN4220, the growth inhibition call was “inactive”.

For `CC(C)NC(=O)N(C)C[C@H]1OCCCC[C@@H](C)Oc2ccc(NS(=O)(=O)c3cn(C)cn3)cc2C(=O)N([C@@H](C)CO)C[C@H]1C`, the cytotoxicity call in the experiment with HSkMC and in the experiment with HepG2 was “inactive” throughout. For the same compound, the growth inhibition call in the experiment with S. aureus RN4220 was “inactive”.

In the case of `COc1cccc(-c2cnc3c(c2)C(=O)N([C@H](C)CO)C[C@H](C)[C@H](CN(C)S(=O)(=O)c2ccccc2)O3)c1`, the cytotoxicity call in the experiment with HSkMC is “inactive”. Further, in the experiment on HepG2, the cytotoxicity call is “active”. Moreover, the growth inhibition call with S. aureus RN4220 is “inactive”.

As for `c1ccc(-c2[nH]nc3ccccc23)cc1`, the cytotoxicity call with HSkMC and in the experiment on HepG2 was “inactive” each time. In the experiment on S. aureus RN4220, the growth inhibition call was “inactive”.

In the case of `COc1ccc(CN(C)C[C@@H]2OCCCC[C@H](C)Oc3ccc(NC(=O)C4CCCCC4)cc3C(=O)N([C@H](C)CO)C[C@H]2C)cc1`, the cytotoxicity call with HSkMC and in the experiment on HepG2 was “inactive” throughout. Further, the growth inhibition call in the experiment on S. aureus RN4220 is “inactive”.

`Nc1c(O)cccc1C(=O)C[C@H](N)C(=O)O`: the cytotoxicity call with HSkMC and in the experiment with HepG2 was “inactive” throughout. The growth inhibition call with S. aureus RN4220 was “inactive”.

In the case of `CCS(=O)(=O)Nc1ccc2c(c1)C(=O)N(C)[C@H]1CC[C@@H](CC(=O)NCCOC)O[C@@H]1CO2`, the cytotoxicity call in the experiment with HSkMC and in the experiment with HepG2 was “inactive” throughout. Also, the growth inhibition call in the experiment with S. aureus RN4220 was “inactive”.

For the compound `C[C@H]1CN([C@@H](C)CO)C(=O)Cc2cc(NS(=O)(=O)c3ccccc3)ccc2O[C@@H]1CN(C)Cc1ccncc1`, the cytotoxicity call in the experiment with HSkMC and in the experiment on HepG2 was “inactive” in each case. The growth inhibition call in the experiment on S. aureus RN4220 is “inactive”.

Regarding `COc1ccc(C2=N[C@@H](c3ccc(Cl)cc3)[C@@H](c3ccc(Cl)cc3)N2C(=O)N2CCNC(=O)C2)c(OC(C)C)c1`, the cytotoxicity call in the experiment with HSkMC was “inactive”. In the experiment on HepG2, the cytotoxicity call is “active”. Also, the growth inhibition call with S. aureus RN4220 is “active”.

For `C=CCSc1n[nH]c(=O)[nH]c1=O`, the cytotoxicity call with HSkMC and in the experiment with HepG2 was “inactive” each time. Also, the growth inhibition call in the experiment with S. aureus RN4220 is “inactive”.

On to `Cc1c(/C=N/c2ccc(C(C)C)cc2)sc2ccccc12`, for which the cytotoxicity call with HSkMC and in the experiment with HepG2 was “inactive” each time. The growth inhibition call with S. aureus RN4220 was “inactive”.

For the compound `C[C@H](O)C#Cc1ccc2c(c1)O[C@H](CN(C)C)[C@H](C)CN([C@H](C)CO)S2(=O)=O`, the cytotoxicity call with HSkMC and in the experiment on HepG2 was “inactive” throughout. The growth inhibition call in the experiment on S. aureus RN4220 was “inactive”.

For `C[C@H]1CN([C@@H](C)CO)C(=O)Cc2cc(NS(=O)(=O)c3ccccc3)ccc2O[C@@H]1CN(C)S(=O)(=O)c1cccs1`, the cytotoxicity call in the experiment on HSkMC and in the experiment on HepG2 was “inactive” throughout. The growth inhibition call in the experiment with S. aureus RN4220 was “inactive”.

In the case of `C/C(=N\N)c1c(C)cc(C)[nH]c1=O`, the cytotoxicity call with HSkMC and in the experiment on HepG2 was “inactive” each time. In addition, in the experiment with S. aureus RN4220, the growth inhibition call is “inactive”.

With `C[C@H]1CN([C@@H](C)CO)S(=O)(=O)c2ccc(C#Cc3ccc(F)cc3)cc2O[C@H]1CN(C)C(=O)c1ccccn1`, the cytotoxicity call in the experiment on HSkMC and in the experiment with HepG2 was “inactive” throughout. In addition, the growth inhibition call with S. aureus RN4220 was “inactive”.

In the case of `COc1ccc2c3c(n(c2c1)C)[C@H](CO)N(C[C@]13CCN(CC1)C(=O)Nc1cccc(c1)F)C(=O)CN1CCOCC1`, the cytotoxicity call in the experiment on HSkMC (human skeletal muscle cells) and with HepG2 was “inactive” throughout. The growth inhibition call in the experiment on S. aureus RN4220 is “inactive”.

Regarding `COc1ccc(NC(=O)[C@H]2[C@@H](c3ccc(C)cc3)CC(=O)N2C(=O)OCc2ccccc2)c2ncccc12`, the cytotoxicity call in the experiment with HSkMC was “inactive”. The cytotoxicity call in the experiment on HepG2 is “active”. Moreover, the growth inhibition call with S. aureus RN4220 is “inactive”.
